Source: a protein production outcome set (Wang et al. 2014)

Test: label from the status in PepcDB records

Sequence	protein production
MAPNGTASSFCLDSTACKITITVVLAVLILITVAGNVVVCLAVGLNRRLRNLTNCFIVSLAITDLLLGLLVLPFSAIYQLSCKWSFGKVFCNIYTSLDVMLCTASILNLFMISLDRYCAVMDPLRYPVLVTPVRVAISLVLIWVISITLSFLSIHLGWNSRNETSKGNHTTSKCKVQVNEVYGLVDGLVTFYLPLLIMCITYYRIFKVARDQAKRINHISSWKAATIREHKATVTLAAVMGAFIICWFPYFTAFVYRGLRGDDAINEVLEAIVLWLGYANSALNPILYAALNRDFRTGYQQLFCCRLANRNSHKTSLRSNASQLSRTQSREPRQQEEKPLKLQVWSGTEVTAPQGATDR	failed
MDLPVNLTSFSLSTPSPLETNHSLGKDDLRPSSPLLSVFGVLILTLLGFLVAATFAWNLLVLATILRVRTFHRVPHNLVASMAVSDVLVAALVMPLSLVHELSGRRWQLGRRLCQLWIACDVLCCTASIWNVTAIALDRYWSITRHMEYTLRTRKCVSNVMIALTWALSAVISLAPLLFGWGETYSEGSEECQVSREPSYAVFSTVGAFYLPLCVVLFVYWKIYKAAKFRVGSRKTNSVSPISEAVEVKDSAKQPQMVFTVRHATVTFQPEGDTWREQKEQRAALMVGILIGVFVLCWIPFFLTELISPLCSCDIPAIWKSIFLWLGYSNSFFNPLIYTAFNKNYNSAFKNFFSRQH	failed
MEPHDSSHMDSEFRYTLFPIVYSIIFVLGVIANGYVLWVFARLYPCKKFNEIKIFMVNLTMADMLFLITLPLWIVYYQNQGNWILPKFLCNVAGCLFFINTYCSVAFLGVITYNRFQAVTRPIKTAQANTRKRGISLSLVIWVAIVGAASYFLILDSTNTVPDSAGSGNVTRCFEHYEKGSVPVLIIHIFIVFSFFLVFLIILFCNLVIIRTLLMQPVQQQRNAEVKRRALWMVCTVLAVFIICFVPHHVVQLPWTLAELGFQDSKFHQAINDAHQVTLCLLSTNCVLDPVIYCFLTKKFRKHLTEKFYSMRSSRKCSRATTDTVTEVVVPFNQIPGNSLKN	failed
MNTINIAKNDFSDIELAAIPFNTLADHYGERLAREQLALEHESYEMGEARFRKMFERQLKAGEVADNAAAKPLITTLLPKMIARINDWFEEVKAKRGKRPTAFQFLQEIKPEAVAYITIKTTLACLTSADNTTVQAVASAIGRAIEDEARFGRIRDLEAKHFKKNVEEQLNKRVGHVYKKAFMQVVEADMLSKGLLGGEAWSSWHKEDSIHVGVRCIEMLIESTGMVSLHRQNAGVVGQDSETIELAPEYAEAIATRAGALAGISPMFQPCVVPPKPWTGITGGGYWANGRRPLALVRTHSKKALMRYEDVYMPEVYKAINIAQNTAWKINKKVLAVANVITKWKHCPVEDIPAIEREELPMKPEDIDMNPEALTAWKRAAAAVYRKDKARKSRRISLEFMLEQANKFANHKAIWFPYNMDWRGRVYAVSMFNPQGNDMTKGLLTLAKGKPIGKEGYYWLKIHGANCAGVDKVPFPERIKFIEENHENIMACAKSPLENTWWAEQDSPFCFLAFCFEYAGVQHHGLSYNCSLPLAFDGSCSGIQHFSAMLRDEVGGRAVNLLPSETVQDIYGIVAKKVNEILQADAINGTDNEVVTVTDENTGEISEKVKLGTKALAGQWLAYGVTRSVTKRSVMTLAYGSKEFGFRQQVLEDTIQPAIDSGKGLMFTQPNQAAGYMAKLIWESVSVTVVAAVEAMNWLKSAAKLLAAEVKDKKTGEILRKRCAVHWVTPDGFPVWQEYKKPIQTRLNLMFLGQFRLQPTINTNKDSEIDAHKQESGIAPNFVHSQDGSHLRKTVVWAHEKYGIESFALIHDSFGTIPADAANLFKAVRETMVDTYESCDVLADFYDQFADQLHESQLDKMPALPAKGNLNLRDILESDFAFA	not failed
MQAVDNLTSAPGNTSLCTRDYKITQVLFPLLYTVLFFVGLITNGLAMRIFFQIRSKSNFIIFLKNTVISDLLMILTFPFKILSDAKLGTGPLRTFVCQVTSVIFYFTMYISISFLGLITIDRYQKTTRPFKTSNPKNLLGAKILSVVIWAFMFLLSLPNMILTNRQPRDKNVKKCSFLKSEFGLVWHEIVNYICQVIFWINFLIVIVCYTLITKELYRSYVRTRGVGKVPRKKVNVKVFIIIAVFFICFVPFHFARIPYTLSQTRDVFDCTAENTLFYVKESTLWLTSLNACLDPFIYFFLCKSFRNSLISMLKCPNSATSLSQDNRKKEQDGGDPNEETPM	failed
MVFSAVLTAFHTGTSNTTFVVYENTYMNITLPPPFQHPDLSPLLRYSFETMAPTGLSSLTVNSTAVPTTPAAFKSLNLPLQITLSAIMIFILFVSFLGNLVVCLMVYQKAAMRSAINILLASLAFADMLLAVLNMPFALVTILTTRWIFGKFFCRVSAMFFWLFVIEGVAILLIISIDRFLIIVQRQDKLNPYRARVLIAVSWATSFCVAFPLAVGNPDLQIPSRAPQCVFGYTTNPGYQAYVILISLISFFIPFLVILYSFMGILNTLRHNALRIHSYPEGICLSQASKLGLMSLQRPFQMSIDMGFKTRAFTTILILFAVFIVCWAPFTTYSLVATFSKHFYYQHNFFEISTWLLWLCYLKSALNPLIYYWRIKKFHDACLDMMPKSFKFLPQLPGHTKRRIRPSAVYVCGEHRTVV	failed
